Source: PubChem BioAssay AID1346428 (National Center for Advancing Translational Sciences (NCATS), 2018)
Values joined by “and” are separate entries in the source; they are usually repeats but may differ in a detail not shown here. Equal values may be shown once. The campaign covered roughly 48,000 compounds. About 1,200 (2.5%) were called active. Another 2% or so got no clear call; they are omitted.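 How the source made its calls: active means activation of at least 60% and not above a set upper limit (about 1 call in 100 departs from these limits); inconclusive means activation of 40% to 60%, or above that upper limit; inactive means activation under 40%.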 The list shows a part of the results.

biological target: Probable G-protein coupled receptor 32 (Homo sapiens) (UniProt O75388); experiment: qHTS for Agonists of Human Resolvin D1 Receptor DRV1; details: CHO-K1 GPR32 beta-arrestin PathHunter luminescence, 90 min; at 76.9 µM; hits give high values; zero percent set by DMSO-only wells; further: 0% is about no effect
Method in brief: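 Engineered CHO-K1 line co-expressing GPR32-ProLink and EA-beta-arrestin. Compound treatment lasted 90 min at 37 °C. Luminescence was recorded after 1 h with substrate at ambient temperature, relative to DMSO basal wells.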

UniProt O75388, sequence (O75388 whole entry, looked up): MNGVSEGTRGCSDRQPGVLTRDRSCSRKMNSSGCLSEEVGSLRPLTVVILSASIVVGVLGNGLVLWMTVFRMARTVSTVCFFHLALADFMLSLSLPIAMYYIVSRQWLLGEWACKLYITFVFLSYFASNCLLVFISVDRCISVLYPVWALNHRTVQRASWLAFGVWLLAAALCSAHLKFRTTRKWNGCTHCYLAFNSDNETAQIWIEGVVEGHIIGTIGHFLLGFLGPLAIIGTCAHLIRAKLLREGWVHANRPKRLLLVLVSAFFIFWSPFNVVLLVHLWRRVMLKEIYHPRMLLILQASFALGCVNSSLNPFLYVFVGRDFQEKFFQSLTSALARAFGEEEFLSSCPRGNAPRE

activation, inactive:
C=Cc1ccc(Cn2ccn(-c3ccc(F)c(F)c3)c(=O)c2=O)cc1 -13.1%
CC(C)(C)NC(=O)N1CCC(C(=O)O)CC1 0.482%
Cc1ccc(CNC(=O)Cc2ccc(NC(=O)N3CCSc4ncccc43)cc2)cc1 7.55%
CCOc1ccccc1NC(=O)CN1C(=O)COc2ccc(S(=O)(=O)NC3CCCC3)cc21 9.78%
CCc1ccccc1NC(=O)c1ccc2c(c1)nnn2C1CCCC1 -17.4%
CCCNC(=O)c1ccc(Cn2c(=O)c3cccn3c3cccnc32)cc1 -12.9%
COc1ccccc1CNC(=O)CCC1N=C2c3ccccc3N=C(SCc3ccc(Cl)cc3)N2C1=O (stereo not drawn) -30.7%
COCCCNC(=O)CCCn1c(=O)c2cccn2c2ccccc21 -3.23%
CCOC(=O)c1c(C)c(-c2ccccc2)n(CC(=O)Nc2cc(C)cc(C)c2)c1C -23%
Cc1ccc(N2CCN(S(=O)(=O)c3ccc(Cl)c4ccccc34)CC2)c(C)c1 -13.2%
O=C1CCCc2cc(S(=O)(=O)NCC3CCC(C(=O)NCc4ccc(F)cc4)CC3)ccc2N1 (stereo not drawn) -41.1%
O=C(CSc1nnc(-c2cccc(F)c2)c(-c2cccc(F)c2)n1)NC1CCCCC1 -13.5%
COc1ccc(-n2nc3c(N4CCC(C(=O)NCCc5ccccc5)CC4)nnc(C)c3c2C)cc1 5.99%
COc1cccc(CSc2nc(-c3ccccc3F)nc3c2Cc2c(CO)cnc(C)c2O3)c1 5.73%
O=C(Cn1ncc2c(=O)oc3ccccc3c21)N1CCN(c2ccc(Cl)cc2)CC1 18.4%
CC(C)(C)c1ccc(C(=O)N(Cc2ccc(F)cc2)Cc2ccco2)cc1 -15.2%
Cc1ccc(-c2nnc(Nc3ccccc3)c3ccccc23)cc1S(=O)(=O)N1CCN(C)CC1 3.3%
CCOC(=O)c1c(NC(=O)COc2ccccc2Br)sc2c1CCCCC2 -9.87%
COc1cc(Cl)c(C)cc1NC(=O)c1cnn(-c2ccc(F)cc2F)c1C1CCN(C(=O)OC(C)(C)C)CC1 -12.1%
COc1ccc2cc(CNc3ccc(C)cc3)c(=O)n(CC(=O)Nc3cccc(Cl)c3C)c2c1 -24.1%
O=C(Nc1ccc(F)c(Cl)c1)Nc1c[nH]c(=O)[nH]c1=O 6.1%
O=C(CSc1nc(=O)n(CCN2CCOCC2)c2c1CCC2)Nc1ccc(Cl)c(Cl)c1 -7.94%
CC(CNC(=O)c1cnn(-c2ccc(F)cc2)c1-n1cccc1)c1ccccc1 (stereo not drawn) 11.9%
CC(=O)Nc1ccccc1-c1nc2ccccc2n(CC(=O)Nc2cccc(C)c2C)c1=O -10.3%
Cc1ccc2nc(SCc3nc(-c4ccc(Cl)cc4)no3)[nH]c2c1 17.7%
Cc1cc(C)cc(N2C(=O)CSC23C(=O)N(Cc2c(F)cccc2Cl)c2ccccc23)c1 (stereo not drawn) -0.301%
CCOC(=O)c1cc(-c2ccccc2)n(CCC(=O)Nc2ccccc2CC)c1C -14.3%
Cc1cc2c(cc1S(=O)(=O)Nc1cccc(Cl)c1C)n(C)c(=O)c(=O)n2C -2.19%
COc1ccc(C2CC(=O)N(Cc3ccc(C)cc3)c3c2c(C)nn3-c2nc(C)cc(C)n2)c(OC)c1 (stereo not drawn) 0.504%
Cc1cccc2nc(-c3ccccn3)c(Nc3ccc(F)cc3)n12 -95.1%
Cc1cccc(CSc2nc3c([nH]c4ccccc43)c(=O)n2C)c1 -4.35%
CCCCC12CN3CC(C)(CN(C1)C3c1c[nH]c3ccccc13)C2=O (stereo not drawn) -22.4%
CCCCC(CC)CNC(=O)Cc1ccc(-n2c(=O)[nH]c3ccccc3c2=O)cc1 (stereo not drawn) 2.06%
CCOc1ccc(CC(=O)Nc2c(C(=O)c3ccccc3)oc3ccc(Cl)cc23)cc1OCC -2.83%
CC(=O)N1c2ccc(S(=O)(=O)Nc3ccc(C)c(Cl)c3)cc2CC1C (stereo not drawn) 45.2%
COc1ccc(N2CCN(S(=O)(=O)c3ccc(-c4coc(C)n4)cc3)CC2)cc1 43%
Cc1cc(Nc2ccc(F)cc2F)nc(-n2nc(C)cc2C)n1 -18.3%
CCc1cc2c(cc3c(=O)n(CCCC(=O)NCc4cccc(Br)c4)ncn32)s1 3.1%
Cc1c(CCNC(=O)c2ccc(C(C)(C)C)cc2)sc2nc(-c3ccc(F)cc3)nn12 -6.61%
CC1=C(C(=O)Nc2cccnc2)C(c2ccc(C)cc2)n2nc(SCc3ccccc3F)nc2N1 (stereo not drawn) 8.25%
COc1cc2c(cc1OC)n(CC(=O)c1cc(C)ccc1C)c(=O)n1nc(CCn3nc(C)cc3C)nc21 -7.43%
CNS(=O)(=O)c1cn(CC(=O)N2CCN(c3ccc(C(C)=O)cc3)CC2)cc1S(=O)(=O)NC -6.9%
Cc1ccc(NC(=O)C(CC(C)C)N2Cc3ccccc3C2=O)cc1F (stereo not drawn) -7.26%
CCOc1ccc(CCNC(=O)c2c(C)oc3ncn(CC(C)C)c(=O)c23)cc1OCC -16.6%
CCCNC(C)C(=O)Nc1ccccc1C (stereo not drawn) -8.21% and 2.77%
CC(=O)N1CCc2c(sc3c2c(=O)n(-c2ccccc2)c(=O)n3CC(=O)Nc2cc(C)cc(C)c2)C1 -10.5%
COc1ccc(CN(CCN(C)C)c2ccccn2)cc1 15.7% and -6.18%
CCCCCc1ccc(-c2ccc(Br)cc2)nc1 10.5%
Cc1ccc(-n2nc(C(=O)N3CCN(c4ccccc4F)CC3)c(=O)n(C)c2=O)cc1 -1.28%
Nc1ncn([C@@H]2O[C@H](CO)[C@@H](O)[C@H]2O)c(=O)n1 -18.2% and 6.48%
O=C(NCc1ccccc1F)C(=O)NCC(c1ccc2c(c1)OCO2)N1CCOCC1 (stereo not drawn) -6.64%
CC(COc1ccccc1)N(CCCl)Cc1ccccc1 (stereo not drawn) -17.1% and -11.7%
Cc1cc(Br)ccc1NC(=O)CSc1c2c(nc3ccccc13)CCC2 -30.7%
